Test results reported in the supplement of paper PMC8728848.
Some of the results follow.

Legend:
Assay in all cases: glycan array binding signal (z-score within array); higher = stronger binding
Details in all cases: glycan notation: IUPAC condensed, linker removed
[1] = target: Kdn(a2-3)Gal(b1-4)Glc
Procedure, shortened: (§1)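 The binding signal is a Z-score computed within each array and averaged over linkers. Arrays of the same protein sequence at different concentrations or buffers were also averaged together. Data originate from 3228 arrays in the Consortium for Functional Glycomics database, kept only where the protein sequence was available.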

[2] = target: Kdn(a2-3)Gal(b1-4)GlcNAc
Procedure, shortened: as §1

[3] = target: Kdn(a2-3)Gal(b1-4)[Fuc(a1-3)]GlcNAc
Procedure, shortened: as §1

[4] = target: Kdn(a2-6)Gal(b1-4)GlcNAc
Procedure, shortened: as §1

[5] = target: Man(a1-2)Man(a1-2)Man(a1-3)Man
Procedure, shortened: as §1

[6] = target: Man(a1-2)Man(a1-2)Man(a1-6)[Man(a1-3)]Man
Procedure, shortened: as §1

[7] = target: Man(a1-2)Man(a1-3)Man
Procedure, shortened: as §1

[8] = target: Man(a1-2)Man(a1-3)[Man(a1-2)Man(a1-6)]Man
Procedure, shortened: as §1

[9] = target: Man(a1-2)Man(a1-3)[Man(a1-2)Man(a1-6)]Man(a1-6)[Man(a1-2)Man(a1-2)Man(a1-3)]Man
Procedure, shortened: as §1

[10] = target: Man(a1-2)Man(a1-3)[Man(a1-2)Man(a1-6)]Man(a1-6)[Man(a1-2)Man(a1-2)Man(a1-3)]Man(b1-4)GlcNAc(b1-4)GlcNAc
Procedure, shortened: as §1

[11] = target: Man(a1-2)Man(a1-3)[Man(a1-6)]Man(a1-6)[Man(a1-2)Man(a1-3)]Man(b1-4)GlcNAc(b1-4)GlcNAc
Procedure, shortened: as §1

[12] = target: Man(a1-2)Man(a1-6)[Man(a1-3)]Man(a1-6)[Man(a1-2)Man(a1-2)Man(a1-3)]Man
Procedure, shortened: as §1

[13] = target: Man(a1-2)Man(a1-6)[Man(a1-3)]Man(a1-6)[Man(a1-2)Man(a1-2)Man(a1-3)]Man(b1-4)GlcNAc(b1-4)GlcNAc
Procedure, shortened: as §1

[14] = target: Man(a1-3)[Man(a1-6)]Man
Procedure, shortened: as §1

[15] = target: Man(a1-3)[Man(a1-6)]Man(a1-6)[Man(a1-2)Man(a1-3)]Man(b1-4)GlcNAc(b1-4)GlcNAc
Procedure, shortened: as §1

[16] = target: Man(a1-3)[Man(a1-6)]Man(a1-6)[Man(a1-3)]Man
Procedure, shortened: as §1

[17] = target: Man(a1-3)[Man(a1-6)]Man(a1-6)[Man(a1-3)]Man(b1-4)GlcNAc(b1-4)GlcNAc
Procedure, shortened: as §1

[18] = target: Man(a1-3)[Man(a1-6)]Man(b1-4)GlcNAc(b1-4)GlcNAc
Procedure, shortened: as §1

[19] = target: Man(a1-6)Man
Procedure, shortened: as §1

[20] = target: Man(b1-4)GlcNAc
Procedure, shortened: as §1

[21] = target: Neu5Ac(a2-3)Gal
Procedure, shortened: as §1

[22] = target: Neu5Ac(a2-3)Gal(b1-3)GalNAc
Procedure, shortened: as §1

[23] = target: Neu5Ac(a2-3)Gal(b1-3)GalNAc(b1-3)Gal(a1-4)Gal(b1-4)Glc
Procedure, shortened: as §1

[24] = target: Neu5Ac(a2-3)Gal(b1-3)GalNAc(b1-4)[Neu5Ac(a2-3)]Gal(b1-4)Glc
Procedure, shortened: as §1

[25] = target: Neu5Ac(a2-3)Gal(b1-3)GalNAc(b1-4)[Neu5Ac(a2-8)Neu5Ac(a2-3)]Gal(b1-4)Glc
Procedure, shortened: as §1

[26] = target: Neu5Ac(a2-3)Gal(b1-3)GalNAc6S
Procedure, shortened: as §1

[27] = target: Neu5Ac(a2-3)Gal(b1-3)GlcNAc
Procedure, shortened: as §1

[28] = target: Neu5Ac(a2-3)Gal(b1-3)GlcNAc(b1-2)Man(a1-3)[Neu5Ac(a2-3)Gal(b1-3)GlcNAc(b1-2)Man(a1-6)]Man(b1-4)GlcNAc(b1-4)GlcNAc
Procedure, shortened: as §1

[29] = target: Neu5Ac(a2-3)Gal(b1-3)GlcNAc(b1-3)Gal(b1-3)GlcNAc
Procedure, shortened: as §1

[30] = target: Neu5Ac(a2-3)Gal(b1-3)GlcNAc(b1-3)Gal(b1-4)GlcNAc
Procedure, shortened: as §1

[31] = target: Neu5Ac(a2-3)Gal(b1-3)GlcNAc(b1-3)GalNAc
Procedure, shortened: as §1

[32] = target: Neu5Ac(a2-3)Gal(b1-3)GlcNAc6S
Procedure, shortened: as §1

[33] = target: Neu5Ac(a2-3)Gal(b1-3)[Fuc(a1-4)]GlcNAc
Procedure, shortened: as §1

[34] = target: Neu5Ac(a2-3)Gal(b1-3)[Fuc(a1-4)]GlcNAc(b1-3)Gal(b1-3)[Fuc(a1-4)]GlcNAc
Procedure, shortened: as §1

[35] = target: Neu5Ac(a2-3)Gal(b1-3)[Fuc(a1-4)]GlcNAc(b1-3)Gal(b1-4)[Fuc(a1-3)]GlcNAc
Procedure, shortened: as §1

[36] = target: Neu5Ac(a2-3)Gal(b1-3)[Neu5Ac(a2-3)Gal(b1-4)]GlcNAc
Procedure, shortened: as §1

[37] = target: Neu5Ac(a2-3)Gal(b1-3)[Neu5Ac(a2-6)]GalNAc
Procedure, shortened: as §1

B1: Tap1 (Sordaria macrospora), Q50IV4 (protein)
chain: MSHHHHHHHHYTLHLRLINDTSDTLTLVEQTSWWGKNTIWSQVRSTGVHVLSMAASGSSGMLRFQTSKGDFFAVAVGVHNYKRWCDVLVDTADEAPLTKLHPKYYDDKDAKYQALWAQASEFEAKSKSGKTVRIKFYQADGNVLRATVEYL
[1]
  glycan array binding signal (z-score): -0.222
[2]
  glycan array binding signal (z-score): -0.238
[3]
  glycan array binding signal (z-score): -0.075
[4]
  glycan array binding signal (z-score): -0.233
[5]
  glycan array binding signal (z-score): -0.235
[6]
  glycan array binding signal (z-score): -0.256
[7]
  glycan array binding signal (z-score): -0.21
[8]
  glycan array binding signal (z-score): -0.218
[9]
  glycan array binding signal (z-score): -0.249
[10]
  glycan array binding signal (z-score): -0.228
[11]
  glycan array binding signal (z-score): -0.226
[12]
  glycan array binding signal (z-score): -0.238
[13]
  glycan array binding signal (z-score): -0.234
[14]
  glycan array binding signal (z-score): -0.242
[15]
  glycan array binding signal (z-score): -0.252
[16]
  glycan array binding signal (z-score): -0.241
[17]
  glycan array binding signal (z-score): -0.246
[18]
  glycan array binding signal (z-score): -0.236
[19]
  glycan array binding signal (z-score): -0.182
[20]
  glycan array binding signal (z-score): -0.219
[21]
  glycan array binding signal (z-score): -0.232
[22]
  glycan array binding signal (z-score): 4.27
[23]
  glycan array binding signal (z-score): -0.222
[24]
  glycan array binding signal (z-score): -0.255
[25]
  glycan array binding signal (z-score): -0.198
[26]
  glycan array binding signal (z-score): 1.7
[27]
  glycan array binding signal (z-score): -0.244
[28]
  glycan array binding signal (z-score): -0.232
[29]
  glycan array binding signal (z-score): -0.244
[30]
  glycan array binding signal (z-score): -0.236
[31]
  glycan array binding signal (z-score): 1.46
[32]
  glycan array binding signal (z-score): -0.247
[33]
  glycan array binding signal (z-score): -0.247
[34]
  glycan array binding signal (z-score): -0.125
[35]
  glycan array binding signal (z-score): -0.171
[36]
  glycan array binding signal (z-score): -0.249
[37]
  glycan array binding signal (z-score): 2.13
